According to patent publication US20200291118A1 (HANX BIOPHARMACEUTICS, published 2020):

What was measured:
CD47 antigen [1] = molecular target: T1, CD47 antigen (human, UniProt Q08722 in part, limits assumed); experiment: ELISA on coated CD47
T1 construct: also called hCD47

hPD-1-his antigen = molecular target: T2, hPD-1-his antigen (human, UniProt Q15116 in part, limits assumed); experiment: ELISA on coated hPD-1-his
T2 construct: Coating antigen; not shown: his tag
Protocol: An ELISA plate was coated with hPD-1-his antigen at a concentration of 0.25 μg/ml (100 μl per well) by incubation at 4° C. overnight.
The ELISA plate coated with the hPD-1-his antigen was blocked with 1% BSA (diluted in the PBS buffer) at 37° C. for 2 hours, and then washed with 1×PBST buffer containing 1% Tween-20 for three times, with gently patting to dryness.
The absorbance of solution in each well was measured on a microplate reader under a wavelength of 450 nm.

CD47 antigen [2] = molecular target: T1, CD47 antigen; experiment: competition ELISA on coated CD47; competitor SIRPA-his tag
Protocol: After the 96-well ELISA plate was washed with the PBST buffer for five times and gently patted to dryness, HRP conjugated anti-his tag mouse monoclonal antibody as a secondary antibody in 1:750 dilution (50 μl per well) was added for incubation at 37° C. for 1 hour.

hPD-1-hIgGFc antigen = molecular target: T3, hPD-1-hIgGFc antigen (human, UniProt Q15116 in part, limits assumed); experiment: competition ELISA on coated hPD-1-hIgGFc; competitor PD-L1-mIgG2aFc
T3 construct: not shown: human IgG Fc
Protocol: A 96-well ELISA plate was coated with hPD-1-hIgGFc antigen at a concentration of 0.5 μg/ml (50 μl per well) by incubation at 4° C. overnight.

T1 sequence (Q08722 19-139 limits assumed): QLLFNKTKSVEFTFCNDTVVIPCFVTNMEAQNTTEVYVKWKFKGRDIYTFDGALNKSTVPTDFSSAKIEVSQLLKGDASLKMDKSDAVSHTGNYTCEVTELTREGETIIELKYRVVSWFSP
hPD-1-his antigen, sequence (Q15116 25-167 limits assumed): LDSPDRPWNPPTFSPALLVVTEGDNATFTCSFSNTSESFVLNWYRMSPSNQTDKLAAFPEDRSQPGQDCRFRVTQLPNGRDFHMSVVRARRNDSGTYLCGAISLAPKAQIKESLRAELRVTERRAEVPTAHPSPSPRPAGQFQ
hPD-1-hIgGFc antigen, sequence (Q15116 25-167 limits assumed): as above

- EC50 (CD47 antigen [1]): 0.6 nM
- EC50 (hPD-1-his antigen): 0.05 nM
- IC50 (CD47 antigen [2]): 21 nM
- IC50 (hPD-1-hIgGFc antigen): 1.5 nM
B1: bi-specific antibody HX009-5 (bispecific antibody, human IgG4 S228P, kappa)
heavy: EVQLVQSGGGLVQPGGSLKLSCAASGFTFSSYGMSWVRQAPGKGLDWVATISGGGRDTYYPDSVKGRFTISRDNSKNNLYLQMNSLRAEDTALYYCARQKGEAWFAYWGQGTLVTVSAASTKGPSVFPLAPCSRSTSESTAALGCLVKDYFPEPVTVSWNSGALTSGVHTFPAVLQSSGLYSLSSVVTVPSSSLGTKTYTCNVDHKPSNTKVDKRV[human IgG4 Fc with S228P (EU numbers) not given here]GGGGSGGGGSERGETGPEE[about 120 residues not given here]
light: DIVLTQSPASLAVSPGQRATITCRASESVDNYGISFMNWFQQKPGQPPKLLIYAASNKGTGVPARFSGSGSGTDFTLNINPMEEEDTAMYFCQQSKEVPWTFGGGTKLEIKRTVAAPSVFIFPPSDEQLKSGTASVVCLLNNFYPREAKVQWKVDNALQSGNSQESVTEQDSKDSTYSLSSTLTLSKADYEKHKVYACEVTHQGLSSPVTKSFNRGEC
notes: Anti-PD-1 IgG (IgG4 constant region by the summary) with SIRPA segment fused to the C-terminus of each heavy chain; expressed in 293 cells; also called PD-1/CD47 bi-specific antibody; recombinant protein
